This is one part of the list. At the low end of the ranking the order means little.

Data on 74 sequences can be found in article PMC5892938.

The assay addresses GST-SBP-SLBP (stem-loop binding protein) (UniProt Q14493). The assay can be described thus: targeted RNA Bind-n-Seq.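 Further: DESeq read counts versus GST-SBP nonspecific binding control pulldown.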 As to conditions: RBNS binding buffer: 25 mM Tris pH 7.5, 150 mM KCl, 3 mM MgCl2, 0.1% Tween, 0.5 mg/mL BSA, 1 mM DTT; 27 nM protein, 750 pM RNA pool; temperature not stated; high values mean tight binding.
As for “GGUCACGUCUCAAUCAACUCAUCCCCAGGAGUUUGCUCCUGCAAUUUCAACAGCUCGCAGUCAAG”, the binding signal (log2 fold change) worked out at 0.0952. In the case of “GGUCACGUCUCAAUCAACUCUAUUUCCAGGGAAACCCCUGGCGUAUUCAACAGCUCGCAGUCAAG”, the binding signal (log2 fold change) was -0.0433. As to “GGUCACGUCUCAAUCAACUCUUCGUCCAGGGAAAUCCCUGGCUUAUUCAACAGCUCGCAGUCAAG”, the binding signal (log2 fold change) was -0.0273. Turning to “GGUCACGUCUCAAUCAACUCUAUUCCCAGGGAAAUCCCUGGUUAUUUCAACAGCUCGCAGUCAAG”, the binding signal (log2 fold change) stood at 0.0238. Consider “GGUCACGUCUCAAUCAACUCUAUUCCAGGAGUUUCCUCCUGUAUUUUCAACAGCUCGCAGUCAAG”, for which the binding signal (log2 fold change) was determined as 0.0998.

Turning to “GGUCACGUCUCAAUCAACUCAACUCCCAGGGAAAACCCUGGUAUACUCAACAGCUCGCAGUCAAG”, the binding signal (log2 fold change) came to 0.0561. “GGUCACGUCUCAAUCAACUCUUUUUCCAGGGAAAGCCCUGGCGUUUUCAACAGCUCGCAGUCAAG”: the binding signal (log2 fold change) is -0.269. Consider “GGUCACGUCUCAAUCAACUCAUUAGAGGGGGGGAAAACCCCUUUGCCCUCCAUUUCAACAGCUCGCAGUCAAG”, for which the binding signal (log2 fold change) is -0.35.

For “GGUCACGUCUCAAUCAACUCUUCGCCCAGGGAAACCCCUGGUAAAUUCAACAGCUCGCAGUCAAG”, the binding signal (log2 fold change) is -0.365.

In the case of “GGUCACGUCUCAAUCAACUCUUUCUCAGGAGUUUACUCCUGUUUAUUCAACAGCUCGCAGUCAAG”, the binding signal (log2 fold change) was -0.203. In the case of “GGUCACGUCUCAAUCAACUCUUUCCCAGGAGUUUACUCCUGUUUUCUCAACAGCUCGCAGUCAAG”, the binding signal (log2 fold change) stood at 0.00522.

Turning to “GGUCACGUCUCAAUCAACUCUUCUCCAGGAGUUUCCUCCUGUAUACUCAACAGCUCGCAGUCAAG”, the binding signal (log2 fold change) was 0.0827.

“GGUCACGUCUCAAUCAACUCUUCUCCCAGGGAAAGCCCUGGCUUACUCAACAGCUCGCAGUCAAG”: the binding signal (log2 fold change) was -0.114.

As for “GGUCACGUCUCAAUCAACUCAUUCCCCAGGGAAAGCCCUGGCAUAUUCAACAGCUCGCAGUCAAG”, the binding signal (log2 fold change) came out at 0.17. With “GGUCACGUCUCAAUCAACUCUUCUUCAGGAGUUUUCUCCUGUAAACUCAACAGCUCGCAGUCAAG”, the binding signal (log2 fold change) worked out at 0.117. In the case of “GGUCACGUCUCAAUCAACUCAUAAGAGGGGGGGAAAACCCCUUUACCCUCACAAUCAACAGCUCGCAGUCAAG”, the binding signal (log2 fold change) is -0.3. In the case of “GGUCACGUCUCAAUCAACUCUCUCGAGGGGGGGAAAACCCCUUUACCCUCAUCGUCAACAGCUCGCAGUCAAG”, the binding signal (log2 fold change) is -0.0779. For the sequence “GGUCACGUCUCAAUCAACUCAAUCCCCAGGGAAAACCCUGGCUAAUUCAACAGCUCGCAGUCAAG”, the binding signal (log2 fold change) was -0.00819. For the sequence “GGUCACGUCUCAAUCAACUCUUCCUCCAGGGAAAGCCCUGGCUAUUUCAACAGCUCGCAGUCAAG”, the binding signal (log2 fold change) was -0.0345. “GGUCACGUCUCAAUCAACUCAGUUUCAGGAGUUUCCUCCUGUUUUUUCAACAGCUCGCAGUCAAG”: the binding signal (log2 fold change) is -0.0191.

As for “GGUCACGUCUCAAUCAACUCAAUUCCAGGAGUUUUCUCCUGUAAAUUCAACAGCUCGCAGUCAAG”, the binding signal (log2 fold change) amounted to 0.0914. Take “GGUCACGUCUCAAUCAACUCAUUUUCAGGAGUUUCCUCCUGUUUAUUCAACAGCUCGCAGUCAAG”: the binding signal (log2 fold change) came to 0.049. For the sequence “GGUCACGUCUCAAUCAACUCUUCUUCCAGGGAAAACCCUGGCAAUGUCAACAGCUCGCAGUCAAG”, the binding signal (log2 fold change) is -0.084. In the case of “GGUCACGUCUCAAUCAACUCAUCUCCCAGGGAAAACCCUGGUUAACUCAACAGCUCGCAGUCAAG”, the binding signal (log2 fold change) was determined as 0.146. On to “GGUCACGUCUCAAUCAACUCUUCCCCAGGAGUUUCCUCCUGCAUUUUCAACAGCUCGCAGUCAAG”, for which the binding signal (log2 fold change) came to 0.0449. Next, “GGUCACGUCUCAAUCAACUCUUCCUCAGGAGUUUCCUCCUGUUAUCUCAACAGCUCGCAGUCAAG”: 0.0172; “GGUCACGUCUCAAUCAACUCUCAAGAGGGGGGGAAAACCCCUUUGCCCUCAUCGUCAACAGCUCGCAGUCAAG”: -0.345; “GGUCACGUCUCAAUCAACUCUAUCGAGGGGGGGAAAACCCCUUUACCCUCCACAUCAACAGCUCGCAGUCAAG”: 0.0569.

In the case of “GGUCACGUCUCAAUCAACUCAUUCCCCAGGGAAAACCCUGGUUUACUCAACAGCUCGCAGUCAAG”, the binding signal (log2 fold change) came to 0.0296. As to “GGUCACGUCUCAAUCAACUCAUCCCCAGGAGUUUUCUCCUGUUUAGUCAACAGCUCGCAGUCAAG”, the binding signal (log2 fold change) was found to be 0.204. Next, “GGUCACGUCUCAAUCAACUCAUCCCCCAGGGAAAGCCCUGGCUAAUUCAACAGCUCGCAGUCAAG”: 0.0465; “GGUCACGUCUCAAUCAACUCAUCUUCCAGGGAAACCCCUGGCUUUCUCAACAGCUCGCAGUCAAG”: -0.0234.

With “GGUCACGUCUCAAUCAACUCUUUCUCAGGAGUUUUCUCCUGUAUAUUCAACAGCUCGCAGUCAAG”, the binding signal (log2 fold change) is -0.00822. “GGUCACGUCUCAAUCAACUCUACUUCAGGAGUUUUCUCCUGUAUACUCAACAGCUCGCAGUCAAG”: the binding signal (log2 fold change) is 0.105. “GGUCACGUCUCAAUCAACUCCUUAGAGGGGGGGAAAACCCCUUUACCCUCGUCUUCAACAGCUCGCAGUCAAG”: the binding signal (log2 fold change) amounted to 0.105. For the sequence “GGUCACGUCUCAAUCAACUCUUUUUCAGGAGUUUACUCCUGCAAUUUCAACAGCUCGCAGUCAAG”, the binding signal (log2 fold change) was -0.0558. As to “GGUCACGUCUCAAUCAACUCUACUCCAGGAGUUUUCUCCUGUUUUCUCAACAGCUCGCAGUCAAG”, the binding signal (log2 fold change) amounted to 0.107. Take “GGUCACGUCUCAAUCAACUCCCCAGAGGGGGGGAAAACCCCUUUACCCUCCACUUCAACAGCUCGCAGUCAAG”: the binding signal (log2 fold change) is -0.35.

For the sequence “GGUCACGUCUCAAUCAACUCAUUUUCCAGGGAAAGCCCUGGCUUUCUCAACAGCUCGCAGUCAAG”, the binding signal (log2 fold change) is 0.0425. Next, “GGUCACGUCUCAAUCAACUCAUCUCCCAGGGAAAGCCCUGGCUUACUCAACAGCUCGCAGUCAAG”: 0.0865; “GGUCACGUCUCAAUCAACUCUAUGGAGGGGGGGAAAACCCCUUUACCCUCAAUUUCAACAGCUCGCAGUCAAG”: -0.167.

For “GGUCACGUCUCAAUCAACUCAAUCCCAGGAGUUUACUCCUGCUAACUCAACAGCUCGCAGUCAAG”, the binding signal (log2 fold change) stood at 0.206. Then “GGUCACGUCUCAAUCAACUCCAAUGAGGGGGGGAAAACCCCUUUACCCUCCAAUUCAACAGCUCGCAGUCAAG”, with 0.00976; and “GGUCACGUCUCAAUCAACUCAUUCCCCAGGGAAAUCCCUGGCUUAUUCAACAGCUCGCAGUCAAG”, with 0.349; and “GGUCACGUCUCAAUCAACUCCUUCGAGGGGGGGAAAACCCCUUUACCCUCUACAUCAACAGCUCGCAGUCAAG”, with -0.0172.

Regarding “GGUCACGUCUCAAUCAACUCAUCCUCAGGAGUUUACUCCUGUUUUCUCAACAGCUCGCAGUCAAG”, the binding signal (log2 fold change) was 0.158.

For “GGUCACGUCUCAAUCAACUCAUUCUCCAGGGAAACCCCUGGUAUUUUCAACAGCUCGCAGUCAAG”, the binding signal (log2 fold change) was 0.09. For “GGUCACGUCUCAAUCAACUCCCAAGAGGGGGGGAAAACCCCUUUACCCUCAUUCUCAACAGCUCGCAGUCAAG”, the binding signal (log2 fold change) is -0.531. As to “GGUCACGUCUCAAUCAACUCUAUAGAGGGGGGGAAAACCCCUUUGCCCUCACCUUCAACAGCUCGCAGUCAAG”, the binding signal (log2 fold change) came out at 0.126. Turning to “GGUCACGUCUCAAUCAACUCAUCGUCAGGAGUUUUCUCCUGCAUUCUCAACAGCUCGCAGUCAAG”, the binding signal (log2 fold change) came out at 0.00916. Then “GGUCACGUCUCAAUCAACUCUUCCUCAGGAGUUUACUCCUGUUAUCUCAACAGCUCGCAGUCAAG”, with 0.0712. As for “GGUCACGUCUCAAUCAACUCUUCAGAGGGGGGGAAAACCCCUUUACCCUCAUCGUCAACAGCUCGCAGUCAAG”, the binding signal (log2 fold change) is -0.269. In the case of “GGUCACGUCUCAAUCAACUCAUCCCCCAGGGAAACCCCUGGCAAACUCAACAGCUCGCAGUCAAG”, the binding signal (log2 fold change) was -0.179.

Take “GGUCACGUCUCAAUCAACUCUUCUCCAGGAGUUUCCUCCUGUUUUCUCAACAGCUCGCAGUCAAG”: the binding signal (log2 fold change) stood at 0.0373. In the case of “GGUCACGUCUCAAUCAACUCUAUUUCAGGAGUUUUCUCCUGUUUAUUCAACAGCUCGCAGUCAAG”, the binding signal (log2 fold change) was -0.0417.

On to “GGUCACGUCUCAAUCAACUCAACUCCCAGGGAAAUCCCUGGUAAUUUCAACAGCUCGCAGUCAAG”, for which the binding signal (log2 fold change) was found to be 0.119. Regarding “GGUCACGUCUCAAUCAACUCUAUUUCAGGAGUUUACUCCUGUUUACUCAACAGCUCGCAGUCAAG”, the binding signal (log2 fold change) is -0.0564.

Take “GGUCACGUCUCAAUCAACUCAUCCCCAGGAGUUUACUCCUGUAAUUUCAACAGCUCGCAGUCAAG”: the binding signal (log2 fold change) is 0.0863.

Take “GGUCACGUCUCAAUCAACUCUACUCCCAGGGAAAUCCCUGGUUAUUUCAACAGCUCGCAGUCAAG”: the binding signal (log2 fold change) was -0.142. Then “GGUCACGUCUCAAUCAACUCUAGUCCAGGAGUUUCCUCCUGUAAUCUCAACAGCUCGCAGUCAAG”, with 0.0581; and “GGUCACGUCUCAAUCAACUCUAAAGAGGGGGGGAAAACCCCUUUGCCCUCCAACUCAACAGCUCGCAGUCAAG”, with 0.187; and “GGUCACGUCUCAAUCAACUCCAUAGAGGGGGGGAAAACCCCUUUACCCUCCAUAUCAACAGCUCGCAGUCAAG”, with -0.131. Consider “GGUCACGUCUCAAUCAACUCAUCCCCAGGAGUUUCCUCCUGCAAAUUCAACAGCUCGCAGUCAAG”, for which the binding signal (log2 fold change) was 0.206. Next, “GGUCACGUCUCAAUCAACUCCAAAGAGGGGGGGAAAACCCCUUUACCCUCCAUAUCAACAGCUCGCAGUCAAG”: 0.0351. As to “GGUCACGUCUCAAUCAACUCAAAAGAGGGGGGGAAAACCCCUUUGCCCUCGUAAUCAACAGCUCGCAGUCAAG”, the binding signal (log2 fold change) stood at 0.177. As for “GGUCACGUCUCAAUCAACUCUUUUCCAGGAGUUUUCUCCUGCUAUUUCAACAGCUCGCAGUCAAG”, the binding signal (log2 fold change) was -0.0723. For the sequence “GGUCACGUCUCAAUCAACUCAACUUCAGGAGUUUGCUCCUGUUUAUUCAACAGCUCGCAGUCAAG”, the binding signal (log2 fold change) was 0.0896. Next, “GGUCACGUCUCAAUCAACUCAAUCCCCAGGGAAAGCCCUGGUAAACUCAACAGCUCGCAGUCAAG”: 0.271. As for “GGUCACGUCUCAAUCAACUCAUCUUCCAGGGAAACCCCUGGUUAUCUCAACAGCUCGCAGUCAAG”, the binding signal (log2 fold change) was -0.13. Next, “GGUCACGUCUCAAUCAACUCUAUCCCAGGAGUUUUCUCCUGUUAAUUCAACAGCUCGCAGUCAAG”: 0.172; “GGUCACGUCUCAAUCAACUCUUUUUCAGGAGUUUUCUCCUGUUUACUCAACAGCUCGCAGUCAAG”: -0.021. With “GGUCACGUCUCAAUCAACUCUAUUCCAGGAGUUUACUCCUGCUUAUUCAACAGCUCGCAGUCAAG”, the binding signal (log2 fold change) was -0.171. Consider “GGUCACGUCUCAAUCAACUCAAUUUCCAGGGAAAACCCUGGUUAACUCAACAGCUCGCAGUCAAG”, for which the binding signal (log2 fold change) is -0.282. “GGUCACGUCUCAAUCAACUCUUACGAGGGGGGGAAAACCCCUUUGCCCUCAUUCUCAACAGCUCGCAGUCAAG”: the binding signal (log2 fold change) was 0.195.
